Reference: PMC7006413
Results are given in words; binding and its absence hold for the method and conditions named. In cells and extracts the contact can be indirect. Some binding calls cover weakened binding; strength is not graded here. Sequences can lack the tags named with a protein.

Protein sequences, listed by entry. Tags and fused reporters are not part of them.
UniProt P67809: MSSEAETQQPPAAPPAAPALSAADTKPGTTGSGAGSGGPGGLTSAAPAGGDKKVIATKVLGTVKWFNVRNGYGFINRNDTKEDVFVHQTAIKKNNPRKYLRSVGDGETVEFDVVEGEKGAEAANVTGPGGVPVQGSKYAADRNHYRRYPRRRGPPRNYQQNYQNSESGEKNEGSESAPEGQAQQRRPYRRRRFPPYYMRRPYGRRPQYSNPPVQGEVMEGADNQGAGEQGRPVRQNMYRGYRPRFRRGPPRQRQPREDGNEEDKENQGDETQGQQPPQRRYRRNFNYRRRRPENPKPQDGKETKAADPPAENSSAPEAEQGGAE

B1: HA-BRD7 N-terminal domain mutant (1–134 aa) (domain or fragment, UniProt Q9NPI1 1-134)
chain: MGKKHKKHKSDKHLYEEYVEKPLKLVLKVGGNEVTELSTGSSGHDSSLFEDKNDHDKHKDRKRKKRKKGEKQIPGEEKGRKRRRVKEDKKKRDRDRVENEAEKDLQCHAPVRLDLPPEKPLTSSLAKQEEVEQT
B2: HA-BRD7 ∆C-terminal domain mutant (∆232–651 aa) (domain or fragment, UniProt Q9NPI1 1-231)
chain: MGKKHKKHKSDKHLYEEYVEKPLKLVLKVGGNEVTELSTGSSGHDSSLFEDKNDHDKHKDRKRKKRKKGEKQIPGEEKGRKRRRVKEDKKKRDRDRVENEAEKDLQCHAPVRLDLPPEKPLTSSLAKQEEVEQTPLQEALNQLMRQLQRKDPSAFFSFPVTDFIAPGYSMIIKHPMDFSTMKEKIKNNDYQSIEELKDNFKLMCTNAMIYNKPETIYYKAAKKLLHSGMKI
B3: HA-BRD7 ∆N-terminal domain mutant (∆1–134 aa) (domain or fragment, UniProt Q9NPI1 135-651)
chain: PLQEALNQLMRQLQRKDPSAFFSFPVTDFIAPGYSMIIKHPMDFSTMKEKIKNNDYQSIEELKDNFKLMCTNAMIYNKPETIYYKAAKKLLHSGMKILSQERIQSLKQSIDFMADLQKTRKQKDGTDTSQSGEDGGCWQREREDSGDAEAHAFKSPSKENKKKDKDMLEDKFKSNNLEREQEQLDRIVKESGGKLTRRLVNSQCEFERRKPDGTTTLGLLHPVDPIVGEPGYCPVRLGMTTGRLQSGVNTLQGFKEDKRNKVTPVLYLNYGPYSSYAPHYDSTFANISKDDSDLIYSTYGEDSDLPSDFSIHEFLATCQDYPYVMADSLLDVLTKGGHSRTLQEMEMSLPEDEGHTRTLDTAKEMEITEVEPPGRLDSSTQDRLIALKAVTNFGVPVEVFDSEEAEIFQKKLDETTRLLRELQEAQNERLSTRPPPNMICLLGPSYREMHLAEQVTNNLKELAQQVTPGDIVSTYGVRKAMGISIPSPVMENNFVDLTEDTEEPKKTDVAECGPGGS
B4: HA-BRD7 ∆BRD domain mutant (∆135–231 aa) (protein, UniProt Q9NPI1)
chain: MGKKHKKHKSDKHLYEEYVEKPLKLVLKVGGNEVTELSTGSSGHDSSLFEDKNDHDKHKDRKRKKRKKGEKQIPGEEKGRKRRRVKEDKKKRDRDRVENEAEKDLQCHAPVRLDLPPEKPLTSSLAKQEEVEQTLSQERIQSLKQSIDFMADLQKTRKQKDGTDTSQSGEDGGCWQREREDSGDAEAHAFKSPSKENKKKDKDMLEDKFKSNNLEREQEQLDRIVKESGGKLTRRLVNSQCEFERRKPDGTTTLGLLHPVDPIVGEPGYCPVRLGMTTGRLQSGVNTLQGFKEDKRNKVTPVLYLNYGPYSSYAPHYDSTFANISKDDSDLIYSTYGEDSDLPSDFSIHEFLATCQDYPYVMADSLLDVLTKGGHSRTLQEMEMSLPEDEGHTRTLDTAKEMEITEVEPPGRLDSSTQDRLIALKAVTNFGVPVEVFDSEEAEIFQKKLDETTRLLRELQEAQNERLSTRPPPNMICLLGPSYREMHLAEQVTNNLKELAQQVTPGDIVSTYGVRKAMGISIPSPVMENNFVDLTEDTEEPKKTDVAECGPGGS
B5: HA-BRD7 C-terminal domain mutant (232–651 aa) (domain or fragment, UniProt Q9NPI1 232-651)
chain: LSQERIQSLKQSIDFMADLQKTRKQKDGTDTSQSGEDGGCWQREREDSGDAEAHAFKSPSKENKKKDKDMLEDKFKSNNLEREQEQLDRIVKESGGKLTRRLVNSQCEFERRKPDGTTTLGLLHPVDPIVGEPGYCPVRLGMTTGRLQSGVNTLQGFKEDKRNKVTPVLYLNYGPYSSYAPHYDSTFANISKDDSDLIYSTYGEDSDLPSDFSIHEFLATCQDYPYVMADSLLDVLTKGGHSRTLQEMEMSLPEDEGHTRTLDTAKEMEITEVEPPGRLDSSTQDRLIALKAVTNFGVPVEVFDSEEAEIFQKKLDETTRLLRELQEAQNERLSTRPPPNMICLLGPSYREMHLAEQVTNNLKELAQQVTPGDIVSTYGVRKAMGISIPSPVMENNFVDLTEDTEEPKKTDVAECGPGGS

molecular target: flag-YB1 (wild-type) (UniProt P67809); assay: co-IP; anti-flag IP from HEK293T cells co-transfected for 48 h with HA-BRD7 (wild type or deletion mutants) and flag-YB1 (wild type or deletion mutants); blot for HA and flag; the text calls the BRD7-mutant panel 'pulldown assays'

binding	Binder
binds	B1
binds	B2
no binding	B3
binds	B4
no binding	B5
